Laboratory results reported in PubChem BioAssay AID686979 (National Center for Advancing Translational Sciences (NCATS), 2013).
Where “and” joins values, the source holds several entries; their conditions need not be identical. Identical values can stand only once. The campaign covered roughly 420,000 compounds. About 50,000 (12%) were called active. The inconclusive results got no clear call from the source; some entries with a clear call stand among them for comparison. Calls come from the whole dose curve; as a rule, active = well fitted inhibition curve with a large enough effect; inconclusive = small, poorly fitted or top-dose-only effect; inactive = flat fitted curve, though single readings scatter. No potency is given beside an inconclusive call; the fits are too rough. The source holds several records for some structures; these can differ, active in one and inactive in another.

Experiment: qHTS for Inhibitors of human tyrosyl-DNA phosphodiesterase 1 (TDP1): qHTS in cells in presence of CPT; note: nearly all actives have a fitted effect of over 55% in size
Details: chicken DT40 Tdp1-/-;hTDP1 cells + 20 nM CPT, ATP luminescence, 48 h; activity change, negative = growth inhibition: at 46.2 µM (top of the series)
Method in brief: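 Chicken DT40 Tdp1-/- cells stably complemented with human TDP1 were seeded at 400 cells/well in medium containing 20 nM camptothecin, exposed to pin-transferred compounds, and grown at 37 °C for at least 48 hr. Viability was read as ATP luminescence.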
% is set by controls: 0 for no effect and ±100 for the full control effect; potency is the fitted concentration of half-maximal effect; tags give direction and shape of the fitted curve.

| SMILES | activity change, negative = growth inhibition | Potency |
| --- | --- | --- |
| Cc1ccc(S(=O)(=O)N2CCN(C(=O)Cn3cnc4c3c(=O)n(C)c(=O)n4C)CC2)cc1C | inactive: -16.4% | – |
| O=C(NCc1nc(-c2ccccc2)no1)c1ccc2c(c1)OCO2 | inactive: -15.1% | – |
| CCc1ccc(C(=O)NNC(=O)CN2C(=O)NC3(CCCC3)C2=O)cc1 | inactive: -17.4% | – |
| CCN(CC)C(=O)c1ccc(S(=O)(=O)N2CCC(c3nc4ccccc4s3)CC2)cc1 | – | active: 7.31 µM |
| C[C@]12CCC(=O)C=C1CC[C@@H]1C2[C@@H](O)C[C@@]2(C)[C@H]1CC[C@]2(O)C(=O)CO (stereo partly specified) | inactive: 0.934% | – |
| CC(C)c1ccc(NC(=O)N2c3ccccc3Sc3ccccc32)cc1 | – | inconclusive [inhibitor, single point] |
| O=C(COc1ccc2ccccc2c1)Nc1ccc(Cc2ccncc2)cc1 | – | inconclusive [inhibitor, single point] |
| Cc1cc(C)c(C(N)=O)c(Nc2cccc(Cl)c2C)n1 | – | inconclusive [inhibitor, single point] |
| Cc1ccc(OCCn2cc(/C(N)=N/O)c3ccccc32)cc1C | inactive: -22.3% | – |
| COc1ccc(-c2cc(C(=O)N3CCN(c4ccccc4)CC3)no2)cc1 | – | inactive and active: 18.4 µM |
| C=CCNC(=S)Nc1ccc(N2CCOCC2)c(S(=O)(=O)Nc2ccccc2Cl)c1 | – | inconclusive [inhibitor, single point] |
| C[C@H]1CN([C@@H](C)CO)S(=O)(=O)c2ccc(Br)cc2O[C@@H]1CN(C)C(=O)Cc1cccnc1 | inactive: 16.1% | – |
| CCOC(=O)C1=C(C2=CCCCC2)c2ccc(OC)cc2N(S(=O)(=O)C(F)(F)F)C1C(=O)OCC (stereo unspecified) | – | active: 5.8 µM |
| CCOc1cccc(NC(=O)/C(C#N)=C\c2cccnc2)c1 | inactive: -1.28% | – |
| CC1(c2ccccn2)Nc2ccccc2-c2nc3ccccc3n21 (stereo unspecified) | – | active: 18.4 µM |
| CC(=O)Nc1ccc(NC(=O)c2c(C)nn(Cc3ccccc3)c2Cl)cc1 | – | active: 13 µM |
| Cn1c(=O)c2c(nc(NCC3CCCO3)n2C)n(C)c1=O (stereo unspecified) | inactive: -3.72% | – |
| Cc1cc(C)c(OCCCCn2cnc3ccccc3c2=O)c(C)c1 | – | inconclusive [inhibitor, single point] |
| COc1ccc(NC(=O)Nc2ccc3c(c2)C(=O)N([C@H](C)CO)C[C@H](C)[C@@H](CN(C)C(=O)NC(C)C)O3)cc1 | inactive: 3.48% | – |
| C=C(C)CNC(=S)NNC(=O)c1cc(C)oc1C | inactive: -2% | – |
| CN(C)CCNC(=O)c1csc(Nc2cccc3ccccc23)n1 | inactive: -50.4% | – |
| Cc1cc(=O)oc2cc(OCC(=O)N3CCN(C(=O)C4COc5ccccc5O4)CC3)ccc12 (stereo unspecified) | – | inconclusive [inhibitor, single point] |
| CCN(CC)c1cccc(OCC(=O)N2c3ccccc3CC2C)c1 (stereo unspecified) | – | inconclusive [inhibitor, single point] |
| COc1ccc(-c2cc3nc4c(c(N5CCC6(CC5)OCCO6)n3n2)CCC4)cc1 | – | active: 13 µM |

| SMILES | activity change, negative = growth inhibition | Potency |
| --- | --- | --- |
| COc1ccccc1NC(=O)N(Cc1cccs1)Cc1cc2cc3c(cc2[nH]c1=O)OCO3 | – | inconclusive [inhibitor, single point] |
| CCc1ccccc1NC(=O)CN1C(=O)C2CCCN2c2ncc(Cl)cc21 (stereo unspecified) | – | inconclusive [inhibitor, single point] |
| CCc1nc2c(OCc3cc(Cl)cc(Cl)c3)cccn2c1N(C)C(=O)Nc1ccccc1OC | – | active: 23.1 µM |
| COc1ccc(NC(=O)CCNS(=O)(=O)c2ccc3c(c2)CC(C)N3C(=O)C2CC2)cc1 (stereo unspecified) | – | inconclusive [inhibitor, single point] |
| CCOc1ccccc1CNC(=O)C1CCN(c2nc3ccccc3nc2C(F)(F)F)CC1 | – | inconclusive [inhibitor, full curve] |
| COc1ccc(-c2csc(Nc3ccccc3)[n+]2Cc2ccccc2)cc1 | – | inconclusive [inhibitor, single point] |
| O=C(CCn1cnnn1)Nc1ccc(Cl)c(Cl)c1 | – | inconclusive [inhibitor, single point] |
| Cc1cc(C)cc(N(C(=O)CNC(=O)c2ccco2)C(C(=O)NC2CCCC2)c2ccncc2)c1 (stereo unspecified) | – | inconclusive [inhibitor, single point] |
| Cn1c(=O)oc2cc(S(=O)(=O)NC(Cc3ccccc3)C(=O)NCc3ccccc3Cl)ccc21 (stereo unspecified) | inactive: -20.1% | – |
| Fc1ccc(COc2ccc(Br)cc2CNCc2ccncc2)cc1 | – | inconclusive [inhibitor, partial curve, poor fit] |
| COc1ccc(/C=C/c2nc(-c3ccccc3O)n[nH]2)cc1OC | – | inconclusive [inhibitor, single point] |
| Oc1ccccc1-c1nc(N2CCN(Cc3ccccc3)CC2)c2ccccc2n1 | – | inconclusive [inhibitor, single point] |
| COC(=O)c1ccc(/C=C2/SC(=S)N(CCCC(=O)Nc3ccc(O)cc3)C2=O)cc1 | – | inconclusive [inhibitor, partial curve, poor fit] |
| COc1cc(/C=N/NC(=S)N/N=C/c2cc(OC)c(OC)c(OC)c2)cc(OC)c1OC | – | active: 4.11 µM |
| COc1ccc(CNC(=O)CSc2nnc3c(n2)[nH]c2ccccc23)cc1 | inactive: 6.91% | – |
| COc1ccc(C(=O)Nc2nc(-c3ccc(OC)cc3)c(-c3ccc([N+](=O)[O-])cc3)s2)cc1 | – | inconclusive [inhibitor, partial curve] |
| O=C(OCc1c(F)cccc1Cl)c1cc([N+](=O)[O-])ccc1N1CCOCC1 | – | inconclusive [inhibitor, single point] |
| Cc1c(C(=O)Oc2cccc3cccnc23)oc2ccccc12 | – | inconclusive [inhibitor, single point] |
| CCOc1cc(C(=O)N/N=C/C2CC=CCC2)cc(OCC)c1OCC (stereo unspecified) | inactive: 2.46% | – |
| O=C(Cc1ccccc1)Nc1cccc(-c2nnc(-c3ccco3)o2)c1 | – | inconclusive [inhibitor, single point] |
| CCOc1ccc(Nc2oc(-c3cccc(Cl)c3)nc2C#N)cc1 | – | inconclusive [inhibitor, single point] |
| CC[n+]1cccc(Br)c1 | inactive: 8.02% | – |
| CCn1nc(C)c(NC(=O)Nc2cccc(Cl)c2Cl)c1C | inactive: -24.6% | – |
| O=C1C2CC=CCC2C(=O)N1CC1CCCO1 (stereo unspecified) | – | inconclusive [inhibitor, single point] |

| SMILES | activity change, negative = growth inhibition | Potency |
| --- | --- | --- |
| Cc1sc(NC(=S)NC(=O)c2cccs2)nc1-c1ccc(CC(C)C)cc1 | – | inconclusive [inhibitor, single point] |
| Cc1ccc(CSC2=Nc3ccccc3C3=NC(CC(=O)NCc4ccc5c(c4)OCO5)C(=O)N23)cc1 (stereo unspecified) | – | inconclusive [inhibitor, single point] |
| COCc1ccc(C(=O)N2CCCC(N3CCN(c4ccccc4C)CC3)C2)s1 (stereo unspecified) | – | active: 14.6 µM |
| Cc1ccc(COc2ccc(C(=O)NN)cc2)cc1 | inactive: -28.6% | – |
| Nc1[nH]c(C(=O)c2ccccc2)c(-c2ccc(Cl)c(F)c2)c1C(=O)NCCc1c[nH]c2ccccc12 | – | inconclusive [inhibitor, single point] |
| CC(=O)C(=Cc1cc(C)n(-c2ccccc2)c1C)C(C)=O | – | inconclusive [inhibitor, partial curve] |
| COc1cc(/C=C2/SC(=S)N(c3c(C)n(C)n(-c4ccccc4)c3=O)C2=O)ccc1O | – | inconclusive [inhibitor, single point] |
| COc1cccc(NC(=O)CN(C)C(=O)c2c(C)noc2C)c1 | inactive: -20.5% | – |
| C=CCn1c(-c2ccc(N)cc2)nc2ccccc21 | – | inconclusive [inhibitor, partial curve, poor fit] |
| CNc1oc(-c2cccs2)nc1C#N | – | inconclusive [inhibitor, full curve] |
| COc1ccccc1NC(=O)N(CCN(C)C)Cc1cc2cc(C)ccc2[nH]c1=O | – | inconclusive [inhibitor, single point] |
| COc1ccc(CNc2nc(-c3ccoc3)nc3ccccc23)c(OC)c1 | – | inconclusive [inhibitor, single point] |
| CS(=O)(=O)Nc1cccc(-c2ccc3ncnc(NCc4cccs4)c3c2)c1 | – | inconclusive [inhibitor, single point] |
| Cc1cnc(C(=O)NNC(=O)c2ccc(Br)cc2)cn1 | – | active: 3.66 µM |
| Cc1cc(-n2c(C)cc(C(=O)CSc3ccccn3)c2C)no1 | – | inconclusive [inhibitor, partial curve] |
| COc1ccccc1OCCCc1c(C)n[nH]c1C | – | inconclusive [inhibitor, single point] |
| COc1cc([N+](=O)[O-])ccc1NC(=O)Nc1ccc2c(c1)OCCO2 | – | inconclusive [inhibitor, single point] |
| CN1C(=O)c2ccccc2C(C(=O)O)C1c1cccc(F)c1 (stereo unspecified) | – | inconclusive [inhibitor, single point] |
| O=C(NC(=S)NCc1ccco1)c1ccc(Br)cc1 | – | inconclusive [inhibitor, single point] |
| Cc1ccc(-n2ncc3c(=O)n(CC#N)cnc32)cc1 | inactive: -22.3% | – |
| O=C(/C=C/c1ccc([N+](=O)[O-])o1)NNC(=O)c1ccc(F)cc1 | – | active: 3.26 µM |
| COc1ccc([C@H]2CC(=O)C=C(c3ccc(NC(C)=O)cc3)C2)cc1OC | – | inconclusive [inhibitor, single point] |
| CN(C)S(=O)(=O)N(CC(=O)N1CCC(Cc2ccccc2)CC1)c1ccccc1 | – | inconclusive [inhibitor, partial curve] |
